Data reported in the supplement of paper PMC12645437, “Orthogonal IMiD-Degron Pairs Induce Selective Protein Degradation in Cells” (ACS Chemical Biology, 2025).
Some of the results follow.

target: no compound (DMSO); experiment: log2 fold change of degron read counts, EGFP-low vs EGFP+ sorted cells; higher = lower degron-EGFP level without compound (poor expression or instability); settings: compound: DMSO control; 18 h
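Note: jurkat cells carrying a lentiviral library of mutant zinc finger degrons fused to EGFP plus mCherry, mCherry+ cells FACS sorted, degron abundance counted by next-generation sequencing.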

Row | Sequence | log2 fold change of degron read counts
1 | FTCPICGRMFTQKGNLLRHIKL | -0.478
2 | FMCEICGHTFTQKGNLLRHIKL | -2.34
3 | FTCEICGHLFTQKGNLLRHIKL | -1.85
4 | FFCPQCGAKFTQKGNLLRHIKL | -0.419
5 | FECPICGHEFTQKGNLLRHIKL | -0.937
6 | FCCNVCGAPFTQKGNLLRHIKL | 0.0743
7 | FACEICGRMFTQKGNLLRHIKL | -1.56
8 | FACNQCGRAFTQKGNLLRHIKL | -0.682
9 | FHCEICGHFFTQKGNLLRHIKL | 0.217
10 | FNCEICGANFTQKGNLLRHIKL | -0.621
11 | FMCEICGRVFTQKGNLLRHIKL | -0.794
12 | FICDVCGAYFTQKGNLLRHIKL | -0.662
13 | LDCPICGFPCTQKGNLLRHIKL | -0.272
14 | FDCDVCGAEFTQKGNLLRHIKL | -1.9
